We go through 88 compounds from ChEMBL document CHEMBL4888484, “Replenishing the malaria drug discovery pipeline: Screening and hit evaluation of the MMV Hit Generation Library 1 (HGL1) against asexual blood stage Plasmodium falciparum ,using a nano luciferase reporter read-out” (2022).

The structures appear in SMILES notation. About 540 (0.36%) of roughly 150,000 compounds showed an effect of 50% or more. The list shows a part of the results.

This experiment deals with Plasmodium falciparum. The experiment in a line: Primary screen in NF54 nanoGlo assay, in single point, at 2uM, 72h; a lower Z score goes with more inhibition. The format is functional, Erythrocyte. The settings on record: timepoint 72 hour.

Consider `O=C(Cc1cccs1)NCC1CCN(C(=O)Oc2ccccc2)CC1`, for which the “% Inhibition” value was -5% and the Z score is 0.99.
Taken in the same sequence, the figures for `Cc1nc(Cn2c(=O)oc3cccnc32)sc1C` were -3% and 0.5.
Taken in the same sequence, the figures for `c1ccc(C2CNC3CCCCC32)cc1` (stereo unspecified) were -16% and 1.83.
For `CCc1ccc(NC(=O)N2CCN3CCC2CC3)cc1F`, the “% Inhibition” value is 13% and the Z score is reported as -1.28.
For the compound `C[C@H]1COC(C)(C)CN1CCc1nsc2ccccc12`, the “% Inhibition” value was -4% and the Z score worked out at 0.61.
For `COc1ccc2c(c1)[C@@]1(CCN(C(=O)c3ccccc3C)C1)C(=O)N2`, the “% Inhibition” value is -3% and the Z score was determined as 0.33.
As to `CNC1(c2nnnn2-c2ccccc2)CCCCC1`, the “% Inhibition” value is reported as -6% and the Z score amounted to 0.91.
Taken in the same sequence, the figures for `O=C(c1ccon1)N1C[C@@H](c2ccc3c(c2)OCO3)[C@@H]2[C@H]1C1CCN2CC1` were -4% and 0.82.
On to `Cn1ncnc1CN1C2CCC1CC(Cc1ccccc1)C2` (stereo unspecified), for which the “% Inhibition” value is given as -17% and the Z score turned out to be 2.21.
Taken in the same sequence, the figures for `Cc1nc(N2C[C@H]3CC[C@@H](C2)NC3)c2ccsc2n1` were -19% and 2.35.
Regarding `CC[C@]1(c2ccccc2)C(=O)N(C)C(=O)N(C(=O)c2ccccc2)C1=O`, the “% Inhibition” value is -6% and the Z score is on record as 1.06.
Taken in the same sequence, the figures for `COc1ccccc1[C@H]1CN(c2ccc(C(C)=O)cn2)[C@@H]2C3CCN(CC3)[C@H]12` were -1% and 0.09.
On to `O=C(CN1C(=O)c2cccnc2Oc2ccccc21)N1CCC2(CC1)OCCO2`, for which the “% Inhibition” value is -10% and the Z score worked out at 1.29.
Taken in the same sequence, the figures for `COCCN1[C@@H]2CN(Cc3ccncc3Cl)C[C@@H]2OCCS1(=O)=O` were -4% and 0.64.
Taken in the same sequence, the figures for `CCc1nsc(NC2CCN3CCCC3C2)n1` (stereo unspecified) were -1% and 0.26.
Taken in the same sequence, the figures for `N=C1c2ccccc2CN1c1ncc(Cl)cc1Cl` were -4% and 0.58.
For `O=C(NCC#CCN1CCCCC1)c1ccsc1`, the “% Inhibition” value is given as -1% and the Z score was 0.27.
Taken in the same sequence, the figures for `CC1CCC(NCCC2(C)OCCO2)CC1C` (stereo unspecified) were -10% and 1.28.
Taken in the same sequence, the figures for `O=c1[nH]c2ccccc2c(=O)n1CC1(N2CCOCC2)CCCCC1` were -5% and 0.9.
Regarding `O=C(c1cc[nH]n1)N1[C@H]2CC[C@@H]1c1cnc(-c3ccccc3)nc1C2`, the “% Inhibition” value was -5% and the Z score is on record as 0.73.
Taken in the same sequence, the figures for `CCn1cc(C(=O)Nc2ccc(F)cc2F)c2cccnc21` were 13% and -1.68.
Taken in the same sequence, the figures for `Cc1ccc(F)cc1C(=O)N1C[C@H](c2ccccc2)[C@@H]2[C@H]1C1CCN2CC1` were -1% and 0.22.
For `CC[C@]1(c2ccccc2)C(=O)N(C(=O)c2ccccc2)C(=O)N(C(=O)c2ccccc2F)C1=O`, the “% Inhibition” value is -3% and the Z score worked out at 0.33.
Taken in the same sequence, the figures for `CNc1nc(CN2C[C@H]3CC(C)=CC[C@H]3C2)cs1` were 4% and -0.67.
Taken in the same sequence, the figures for `Cc1c(C(=O)N2CCC3(CC2)OCCO3)cnn1C` were -6% and 1.2.
`CCNC(=O)CN1C[C@@H]2CC[C@H]1CN(Cc1c(C)noc1C)C2`: the “% Inhibition” value was -8% and the Z score is 1.62.
`COc1ccc(CN2CCOC[C@@]23CCOC3)nn1`: the “% Inhibition” value was -2% and the Z score amounted to 0.33.
Taken in the same sequence, the figures for `C[C@@H](Cc1ccc(Cl)cc1)NCCc1nnc2ccccn12` were 5% and -0.66.
Taken in the same sequence, the figures for `O=C1CCCN1c1ccc(N[C@H]2CN3CCC2CC3)cc1` were 0% and -0.04.
Turning to `CCc1ccc(CN2C[C@@H]3CCC[C@H](C2)C(=O)N3)nc1`, the “% Inhibition” value was -13% and the Z score was 2.37.
Take `O=c1ccc2ccccc2n1Cc1cncn1C1CC1`: the “% Inhibition” value is listed as -7% and the Z score is given as 1.31.
For the compound `CC1CCC(c2nnnn2-c2ccc(Cl)cc2)(N2CCOCC2)CC1` (stereo unspecified), the “% Inhibition” value is given as 8% and the Z score is -0.94.
For `N#Cc1ccc(NCC2(O)CCC2)cc1Cl`, the “% Inhibition” value was determined as 6% and the Z score is -0.7.
As for `OC12CC(C3COC1O3)n1nc(C(F)(F)F)nc1N2` (stereo unspecified), the “% Inhibition” value is recorded as -11% and the Z score is 1.46.
Turning to `CC(NCc1cccn(C(F)F)c1=O)C(c1ccccc1)N(C)C` (stereo unspecified), the “% Inhibition” value was -20% and the Z score is on record as 2.13.
In the case of `O=C(c1ccccc1F)c1cc(Cl)ccc1NC(=O)C(c1ccccc1)c1ccccc1`, the “% Inhibition” value is -12% and the Z score came to 1.95.
Taken in the same sequence, the figures for `O=C(Nc1ccc(-c2noc(=O)[nH]2)cc1)[C@@H]1Cc2ccccc2O1` were -8% and 0.99.
With `CCOc1ccc(CN2CCN(C)[C@@]3(CCNC(=O)CC3)C2)cn1`, the “% Inhibition” value was 5% and the Z score is on record as -0.88.
On to `CC(Cc1ccccc1)NC1CN2CCC1CC2` (stereo unspecified), for which, for the setting “2 µM”, the “% Inhibition” value was 0% and the Z score is given as -1.44.
For `Cc1cccnc1CN1CCCN2CCC[C@H]2C1`, the “% Inhibition” value is reported as -21% and the Z score is on record as 2.03.
Taken in the same sequence, the figures for `O=C(c1cnc(-c2cc(Cl)cc(Cl)c2)nc1O)N1C[C@@H]2C[C@H]1CN2` were 3% and -0.4.
`CN1[C@@H]2CC[C@H]1c1c(nc(N)c(C#N)c1-c1ccc(F)cc1Cl)C2`: the “% Inhibition” value is reported as -5% and the Z score is given as 0.55.
Taken in the same sequence, the figures for `COCC(=O)N[C@@H](C)Cc1cc(C)cc(C)c1` were -1% and 0.12.
As for `Cc1cccc(C(=O)N2C[C@H](c3ccccc3)[C@@H]3[C@H]2C2CCN3CC2)c1O`, the “% Inhibition” value is 10% and the Z score is -1.42.
Taken in the same sequence, the figures for `CC(=O)NCC1=CCCN(CCc2c[nH]c3ccccc23)C1` were -12% and 1.22.
Taken in the same sequence, the figures for `CC(C)(C)OC(=O)NC1CC(NC(=O)CN2CCCC2=O)C1(C)C` (stereo unspecified) were 6% and -0.65.
Taken in the same sequence, the figures for `COc1cc(=O)n(-c2ccccc2)cc1C(=O)N1CCC2(CC1)OCCO2` were 11% and -1.37.
`COC[C@H](NCCc1ccc2c(c1)OCO2)C1CC1`: the “% Inhibition” value is -16% and the Z score was 1.61.
Taken in the same sequence, the figures for `Fc1cccc(C[C@H]2CCOC3(CCNCC3)C2)c1` were -8% and 0.93.
Taken in the same sequence, the figures for `O=C(c1cnsn1)N1CCN2C[C@@H](F)C[C@H]2C1` were -6% and 1.01.
Taken in the same sequence, the figures for `Cc1c(C(=O)NCc2cc(Cl)cc3c2OCC3)cnn1CC1CCOCC1` were -6% and 1.19.
Regarding `COCc1nc(NCc2c(C)cc(C)nc2OC)cc([C@H]2CCOC2)n1`, the “% Inhibition” value was -6% and the Z score is recorded as 1.06.
Taken in the same sequence, the figures for `COc1cc(C[C@H](C)NCCc2ccncc2C)ccn1` were -8% and 1.1.
Taken in the same sequence, the figures for `Nc1ccc(C(=O)N2C[C@H](c3cc(F)cc(F)c3)[C@@H]3[C@H]2C2CCN3CC2)cn1` were -12% and 2.28.
Taken in the same sequence, the figures for `Cc1ccc2nc3c(cc2c1)CC1(C(=O)NC(=O)N(C2CCCCC2)C1=O)C1CCCCN31` (stereo unspecified) were -6% and 0.75.
Take `CCCN(CC)c1ccc(C(=O)N2CCC3(CN(C)C3)C2)cn1`: the “% Inhibition” value is -20% and the Z score is 1.8.
Taken in the same sequence, the figures for `COC1CCCCC1NC1CCCCCC1` (stereo unspecified) were -2% and 0.37.
Taken in the same sequence, the figures for `Fc1cccc(F)c1CN1CC[C@]2(CCOC2)C1` were -2% and 0.38.
Taken in the same sequence, the figures for `COC(=O)c1ccc(CO[C@@H](CN2CCN(C(=O)Cc3ccccc3)CC2)c2cccc(OC)c2)cc1` were 3% and -0.4.
For the compound `FC(F)(F)CNCCc1ccccc1`, the “% Inhibition” value is listed as -5% and the Z score is listed as 0.71.
For the compound `N#Cc1ccc(NCCN2CCC(CO)CC2)cc1Cl`, the “% Inhibition” value amounted to 3% and the Z score is reported as -0.47.
Taken in the same sequence, the figures for `CN1C[C@@H]2Oc3ccccc3C(=O)N(C)[C@@H]2C1` were -9% and 1.72.
In the case of `Cc1noc(C)c1S(=O)(=O)N1C[C@@H]2C[C@H]1CN2Cc1ccccc1`, the “% Inhibition” value is -6% and the Z score came out at 0.78.
Taken in the same sequence, the figures for `Cc1cc(=O)c(C(=O)NCCCN2CCCC2=O)c(CC2CCCC2)n1Cc1cccnc1` were 15% and -2.06.
Taken in the same sequence, the figures for `O=C(Cn1ccc(C2CC2)n1)N1CCC2(CC1)OCCO2` were -1% and 0.16.
Taken in the same sequence, the figures for `CCN(CC(=O)c1ccc2ccccc2c1)C1CCCCC1` were -10% and 1.64.
Regarding `CC(C)CNC(=O)CN1CC=C(c2noc(C3CCC3)n2)CC1`, the “% Inhibition” value is listed as -9% and the Z score amounted to 1.22.
Taken in the same sequence, the figures for `CN(C)c1nccc(N2CCN[C@@H]3CS(=O)(=O)C[C@@H]32)n1` were -7% and 0.88.
Taken in the same sequence, the figures for `CCc1ccc(CN2CCCN3CCC[C@H]3C2)o1` were -5% and 0.6.
Taken in the same sequence, the figures for `CCN(C(=O)Cc1cncnc1)[C@@H](C)Cc1ccc(OC)cc1` were -4% and 0.55.
Consider `O=C(NCc1nccs1)C1CCC2CCCCN21` (stereo unspecified), for which the “% Inhibition” value is on record as -4% and the Z score was determined as 0.56.
Taken in the same sequence, the figures for `CC(O)CC(C)CNC1CCC(C)C(C)C1` (stereo unspecified) were -7% and 0.85.
Taken in the same sequence, the figures for `COc1ccc([C@H]2C[C@H]3CC[C@@H](C2)N3Cc2cnc(N(C)C)nc2)cc1` were 0% and -0.06.
Taken in the same sequence, the figures for `Cc1cc(C(=O)NCc2ccc(N3CCNCC3)c(F)c2)n(C)n1` were -2% and 0.29.
On to `Cc1ccncc1C(=O)N1CCN(CC2CC2)[C@@H]2CS(=O)(=O)C[C@@H]21`, for which the “% Inhibition” value is given as 4% and the Z score was -0.73.
Taken in the same sequence, the figures for `CN1CCC2(O)CCCCC2C1c1cccnc1` (stereo unspecified) were 3% and -0.34.
Taken in the same sequence, the figures for `CN(C)C1(CNc2ccc(C#N)c(Cl)c2)CCOCC1` were -5% and 0.53.
Taken in the same sequence, the figures for `Cc1csc(C(=O)NCC#CCN2CCCC2)c1` were -6% and 1.15.
`C1CCC(c2nc([C@H]3CCOC3)no2)(N2CCOCC2)CC1`: the “% Inhibition” value is -12% and the Z score came to 1.21.
Taken in the same sequence, the figures for `CCCc1cnc(C)nc1N1CC[C@H]2CC[C@@H](C1)N2C` were -7% and 0.71.
Taken in the same sequence, the figures for `C=CCN1C(=O)NC(=O)[C@@]2(Cc3cc(C)ccc3N(C)C2)C1=O` were -16% and 1.43.
Taken in the same sequence, the figures for `Cc1cnc(C)c(N2CCC[C@H]2c2cccnc2)n1` were -9% and 0.98.
`CC(C)Cc1noc(CN(C)C(=O)CN2CC3(CCCC3)CC2=O)n1`: the “% Inhibition” value is listed as -2% and the Z score stood at 0.34.
For the compound `CO[C@H]1C[C@H]2CC[C@@H](C1)N2Cc1nc2ccccc2[nH]1`, the “% Inhibition” value came out at 2% and the Z score is given as -0.27.
Taken in the same sequence, the figures for `CN(C)CC(=O)Nc1ccc2n(c1=O)C[C@H]1C[C@@H]2CN(S(=O)(=O)c2ccccc2)C1` were -1% and 0.12.
Taken in the same sequence, the figures for `O[C@H]1CCN(Cc2cncc(C(F)(F)F)c2)C12CCCC2` were -5% and 1.01.
As to `Cc1cc(C)c2[nH]c(C)c(CC(=O)N3CCCN(C)CC3)c2c1`, the “% Inhibition” value is listed as -9% and the Z score is on record as 1.22.
Taken in the same sequence, the figures for `Cc1nc(-c2cc(S(=O)(=O)N3CCC[C@H](C(=O)N4CCC5(CC4)OCCO5)C3)c(C)s2)no1` were -12% and 1.24.
